The results in this text go back to PMC6136799, “The Npa1p complex chaperones the assembly of the earliest eukaryotic large ribosomal subunit precursor” (PLoS Genetics, 2018).

Experiment [1] concerns the target T1, Dbp6p-FPZ (S. cerevisiae) (UniProt P53734).
T1 sequence: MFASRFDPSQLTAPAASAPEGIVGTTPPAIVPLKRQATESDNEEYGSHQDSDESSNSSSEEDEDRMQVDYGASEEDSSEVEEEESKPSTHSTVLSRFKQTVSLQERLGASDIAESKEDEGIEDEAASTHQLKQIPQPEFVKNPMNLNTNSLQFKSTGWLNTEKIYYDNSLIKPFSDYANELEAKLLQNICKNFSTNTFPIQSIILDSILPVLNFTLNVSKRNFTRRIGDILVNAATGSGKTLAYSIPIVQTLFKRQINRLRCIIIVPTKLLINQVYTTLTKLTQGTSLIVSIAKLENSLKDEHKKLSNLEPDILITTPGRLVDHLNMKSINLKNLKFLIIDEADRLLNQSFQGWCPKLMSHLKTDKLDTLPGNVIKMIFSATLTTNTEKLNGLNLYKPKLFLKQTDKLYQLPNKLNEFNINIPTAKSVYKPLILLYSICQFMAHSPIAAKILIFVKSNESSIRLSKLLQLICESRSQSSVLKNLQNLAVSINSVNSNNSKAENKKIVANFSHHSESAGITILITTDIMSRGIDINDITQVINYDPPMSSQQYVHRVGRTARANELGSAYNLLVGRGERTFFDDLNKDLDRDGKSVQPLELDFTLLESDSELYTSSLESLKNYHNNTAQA
As to the kind of experiment: co-IP; tandem affinity purification of the FPZ-tagged bait from yeast extract cleared by two ultracentrifugation steps (IgG sepharose, PreScission protease, anti-Flag beads, Flag peptide elution); buffers with 100 mM MgCl2 and 150 mM NaCl, 4°C; Coomassie or silver staining, Western; also from cells depleted of Npa2p, Dbp6p or Nop8p.

The target in experiment [2] is T1, Dbp6p-FPZ (S. cerevisiae). As to the kind of experiment: co-IP; tandem affinity purification of the FPZ-tagged bait from yeast extract (IgG sepharose, PreScission protease, anti-Flag beads, Flag peptide elution); buffers with 10 mM MgCl2 and 150 mM NaCl, 4°C; Coomassie staining, Western; also rrn3/RSA3-FPZ cells at 24°C or shifted to 37°C for 6 hours, and cells depleted of Npa1p or Npa2p where binding is kept.

Results are given in words; binding and its absence hold for the method and conditions named. In cells and extracts the contact can be indirect. Some results given as binding are weak or reduced against the parent protein; the word gives no strength.

B1: Npa2p (protein, UniProt P47108 1-1174)
chain: MGDLTEELSIPDNAQDLSKLLRSTSTKPHQIAEIVSKFDKLETYFPKKEIFVLDLLIDRLNNGNLDDFKTSEHTWIIFTRLLDAINDPISIKKLLKKLKTVPVMIRTFFLWPKDKLLTRSVSFIKAFFAINDYLIVNFSVEESFQLLEHAINGLSSCPTTDFALSYLQDACNLTHVDNITTTDNKIATCYCKHMLLPSLRYFAQTKNSASSNQSFIRLSHFMGKFLLQPRIDYMKLNKKFVQENASEITDDMAYYYFATFVTFLSKDNFAQLEVIFTILGAKKPSLECRFLNLLSESKKTVSQEFLEALLLEMLASTDESGVLSLIPIILKLDIEVAIKHIFRLLELIQLENLNDPLFSSHIWDLIIQSHANARELSDFFAKINEYCSRKGPDSYFLINHPAYVKSITKQLFTLSSLQWKNLLQALLDQVNHDSTNRVPLYLIRICLEGLSEGASRATLDEVKPILSQVFTLESFNNSLQWDLKYHIMEVYDDIVPAEELEKIDYVLSSNIFDTTSADVEELFFYCFKLREYISFDLSDAKKKFMRHFEILDEERKSNLSYSVVSKFATLVNNNFTREQISSLIDSLLLNSTNLSSLLKNDDIFEETNITYALINKLASSYHQTFALEALIQIPIQCINKNVRVALINNLTCESFCLDSATRECLLHLLSSPTFKSNIETNFYELCEKTIMSPEMAISETGDEKKEIEDKISIFEKVWTNHLSQAKEPVSEKFLESGYDIVKQSMSLSNGDSKLIIAGFTIAKFLKPDNKHRDIQGMAISYAVKILENYSENFESETIPLFRISMSTLYKIITTGQGDISKHKSRILDIFSKIMLRYHSKKVYHAPEEQEMFLVHSLLTENKLEYIFAEYLNIEHTDKCDSALGFCLEESLKQGPDAFNRLLWNSAKSFSTISQPCAEKFVRVFIIMSKRIARDNNLGHHLFVIALLEAYTYCDIEKFGYKSYLLLFNAIKEFLVSKPWLFSQYCIEMLLPFCLKTLAFIVNHESTDEINEGFINIIEVIDHMLLVHRFKFSNRHHLFNSVLCQILEIIAIHDGTLCANSADAVARLITNYCEPYNVSNAQNGQKNNLSSKISLIKQSIRKNVLVVLTKYIQLSITTQFSLNIKKSLQPGIHAIFDILSQNELNQLNAFLDTPGKQYFKALYLQYKKVGKWRED
As for B1, the binding result in experiment [1] is reported as “no binding (condition: 100 mM MgCl2)”; in experiment [2], “binds”.
